# Laboratory results as given in the supplement of paper PMC4604168 (melanoma cell lines).
# Some of the results follow. Repeats are few or missing, and single values can be far off.
# Tests used:
# Test in all cases: cell count relative to DMSO control; melanoma cells; higher = more viable cells
# Settings in all cases: library dose: low library concentration; 72 h
# WM115 = tested on: WM115
# WM1716 = tested on: WM1716
# WM1745 = tested on: WM1745
# WM3526 = tested on: WM3526
# WM3619 = tested on: WM3619
# WM451Lu = tested on: WM451Lu
# 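Also: cell number obtained by counting DAPI-stained nuclei in high-throughput microscope images with image analysis software, screen run in 1,536-well plates.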
Compound,cell count (WM115),cell count (WM1716),cell count (WM1745),cell count (WM3526),cell count (WM3619),cell count (WM451Lu)
"NC(=O)c1ccc(N(C(N)=O)c2c(F)cccc2F)nc1-c1ccc(F)cc1F + CCCS(=O)(=O)Nc1ccc(F)c(C(=O)c2c[nH]c3ncc(Cl)cc23)c1F [PLX4720] (first compound 0.4 µM, partner dose 0.08 µM)",93.5%,119%,83.6%,80.1%,85.7%,96%
"Cc1ccc(NC(=O)c2cccc(N(C)C)c2)cc1NC(=O)c1ccc(O)cc1 + CN(NC(=O)CC(=O)NN(C)C(=S)c1ccccc1)C(=S)c1ccccc1 [STA4783] (first compound 2 µM, partner dose 0.006 µM)",73%,57.3%,41.4%,84%,58.1%,97.1%
"NC(=O)c1ccc(N(C(N)=O)c2c(F)cccc2F)nc1-c1ccc(F)cc1F + COc1ccc(C2=N[C@@H](c3ccc(Cl)cc3)[C@@H](c3ccc(Cl)cc3)N2C(=O)N2CCNC(=O)C2)c(OC(C)C)c1 [Nutlin-3] (first compound 0.4 µM, partner dose 0.1 µM)",89.8%,90.2%,89.7%,92.7%,104%,95.3%
"NC(=O)c1ccc(N(C(N)=O)c2c(F)cccc2F)nc1-c1ccc(F)cc1F + CC(=O)c1c(C)c2cnc(Nc3ccc(N4CCNCC4)cn3)nc2n(C2CCCC2)c1=O [palbociclib] (first compound 0.4 µM, partner dose 0.04 µM)",83.1%,78.2%,82.1%,87.3%,54.5%,91.4%
"CCc1ccc(CCOc2ccc(CC3SC(=O)NC3=O)cc2)nc1 (centres undefined) [pioglitazone] + O=C(O)C(=O)Nc1sc2c(c1C(=O)O)CCNC2 [TCS401] (first compound 2 µM, partner dose 1.66667 µM)",95.6%,93.8%,77.6%,70.4%,131%,98.9%
"Cc1ccc(NC(=O)c2cccc(N(C)C)c2)cc1NC(=O)c1ccc(O)cc1 + O=c1cc(-c2cccc3c2Sc2ccccc2S3)oc(N2CCOCC2)c1 [KU55933] (first compound 2 µM, partner dose 1 µM)",110%,124%,94%,91.2%,98.3%,106%
"NC(=O)c1ccc(N(C(N)=O)c2c(F)cccc2F)nc1-c1ccc(F)cc1F + CS(=O)(=O)c1ccc(C(=O)Nc2ccc(Cl)c(-c3ccccn3)c2)c(Cl)c1 [vismodegib] (first compound 0.4 µM, partner dose 1 µM)",100%,150%,115%,118%,96.7%,113%
"CC(C)(C)c1cnc(CSc2cnc(NC(=O)C3CCNCC3)s2)o1 + CN(C)S(=O)(=O)c1ccc2c(c1)/C(=C/c1cc3c([nH]1)CCCC3)C(=O)N2 [SU6656] (first compound 0.01 µM, partner dose 0.4 µM)",74.2%,91.7%,94.2%,106%,85.3%,105%
"NC(=O)c1ccc(N(C(N)=O)c2c(F)cccc2F)nc1-c1ccc(F)cc1F + C[C@@H]1CCN(C(=O)CC#N)C[C@@H]1N(C)c1ncnc2[nH]ccc12 [CP690550] (first compound 0.4 µM, partner dose 1 µM)",107%,112%,75.8%,84.1%,183%,114%
"COc1cc2c(Oc3ccc4[nH]c(C)cc4c3F)ncnc2cc1OCCCN1CCCC1 [cediranib] + O=S(=O)(c1ccccc1)N(CC(F)(F)F)c1ccc(C(O)(C(F)(F)F)C(F)(F)F)cc1 [T0901317] (first compound 0.4 µM, partner dose 1.4 µM)",86%,86.6%,84.1%,85.2%,91.7%,97.9%
"CCCCCCCCc1ccc(CCC(N)(CO)CO)cc1 [fingolimod] + C=CCn1c(=O)c2cnc(Nc3ccc(N4CCN(C)CC4)cc3)nc2n1-c1cccc(C(C)(C)O)n1 [MK1775] (first compound 2 µM, partner dose 0.02 µM)",95.4%,83.2%,69.8%,81.6%,92.7%,115%
"CCCCCCCCc1ccc(CCC(N)(CO)CO)cc1 [fingolimod] + COc1ccc(COc2ccc(Cc3cnc(N)nc3N)cc2OC)cc1 [GW2580] (first compound 2 µM, partner dose 1 µM)",98.4%,79%,87.5%,86.8%,98.2%,107%
"Cc1ccc(NC(=O)c2cccc(N(C)C)c2)cc1NC(=O)c1ccc(O)cc1 + NCC(=O)Nc1ccc(-n2nc(C(F)(F)F)cc2-c2ccc3c(ccc4ccccc43)c2)cc1 [OSU03012] (first compound 2 µM, partner dose 1 µM)",84%,102%,75.7%,59.6%,95.3%,70.9%
"CCCCCCCCc1ccc(CCC(N)(CO)CO)cc1 [fingolimod] + Oc1nc(-c2ccc(C(F)(F)F)cc2)nc2c1CSCC2 [XAV939] (first compound 2 µM, partner dose 2 µM)",93.8%,54.6%,66.2%,67.6%,87.7%,115%
